EPA's CvTdb concentration-time database
The source gives many values for each of these; only a part stands here.

What was measured:
Rat [1] = test: concentration in plasma after dosing; conditions: 10 min; dosed: alpha/beta-Thujone mixture; 25 mg/kg; oral; Male; F344
Rat [2] = test: concentration in plasma after dosing; conditions: 6 h; dosed: alpha/beta-Thujone mixture; 25 mg/kg; oral; Female; F344
Rat [3] = test: concentration in plasma after dosing; conditions: 0.5 h; dosed: alpha/beta-Thujone mixture; 25 mg/kg; oral; Male; F344
Rat [4] = test: concentration in brain after dosing; conditions: 5 min; dosed: alpha/beta-Thujone mixture; 50 mg/kg; oral; Male; F344
Rat [5] = test: concentration in plasma after dosing; conditions: 0.75 h; dosed: 76231-76-0; 3.0 mg/kg; iv; Male; F344
Rat [6] = test: concentration in brain after dosing; conditions: 0.25 h; dosed: 76231-76-0; 3.0 mg/kg; iv; Female; F344
Rat [7] = test: concentration in plasma after dosing; conditions: 8 h; dosed: 76231-76-0; 3.0 mg/kg; iv; Male; F344
Rat [8] = test: concentration in plasma after dosing; conditions: 5 min; dosed: alpha/beta-Thujone mixture; 50 mg/kg; oral; Female; F344
Rat [9] = test: concentration in plasma after dosing; conditions: 5 min; dosed: alpha/beta-Thujone mixture; 50 mg/kg; oral; Female; F344; remark: listed apart in the source
Rat [10] = test: concentration in plasma after dosing; conditions: 0.25 h; dosed: 76231-76-0; 3.0 mg/kg; iv; Female; F344
Rat [11] = test: concentration in plasma after dosing; conditions: 2 min; dosed: alpha/beta-Thujone mixture; 50 mg/kg; oral; Male; F344
Rat [12] = test: concentration in plasma after dosing; conditions: 10 min; dosed: alpha/beta-Thujone mixture; 50 mg/kg; oral; Female; F344
Rat [13] = test: concentration in plasma after dosing; conditions: 10 min; dosed: alpha/beta-Thujone mixture; 25 mg/kg; oral; Female; F344
Rat [14] = test: concentration in plasma after dosing; conditions: 3 h; dosed: alpha/beta-Thujone mixture; 50 mg/kg; oral; Male; F344
Rat [15] = test: concentration in plasma after dosing; conditions: 0.25 h; dosed: 76231-76-0; 3.0 mg/kg; iv; Female; F344; remark: listed apart in the source
Rat [16] = test: concentration in brain after dosing; conditions: 5 min; dosed: 76231-76-0; 3.0 mg/kg; iv; Male; F344
Rat [17] = test: concentration in brain after dosing; conditions: 1 h; dosed: 76231-76-0; 3.0 mg/kg; iv; Female; F344
Rat [18] = test: concentration in plasma after dosing; conditions: 6 h; dosed: alpha/beta-Thujone mixture; 50 mg/kg; oral; Female; F344
Rat [19] = test: concentration in brain after dosing; conditions: 1.5 h; dosed: 76231-76-0; 3.0 mg/kg; iv; Female; F344
Rat [20] = test: concentration in brain after dosing; conditions: 5 min; dosed: alpha/beta-Thujone mixture; 25 mg/kg; oral; Female; F344
Rat [21] = test: concentration in plasma after dosing; conditions: 1 h; dosed: 76231-76-0; 3.0 mg/kg; iv; Male; F344
Rat [22] = test: concentration in brain after dosing; conditions: 12 h; dosed: alpha/beta-Thujone mixture; 25 mg/kg; oral; Female; F344
Rat [23] = test: concentration in liver after dosing; conditions: 6744 h; dosed: 3,3',4,4',5-pentachlorobiphenyl; 1000 mg/kg; oral; Female; Harlan Sprague Dawley
Rat [24] = test: concentration in liver after dosing; conditions: dosed: 3,3',4,4',5-pentachlorobiphenyl, 1000 mg/kg, oral
Rat [25] = test: concentration in liver after dosing; conditions: 7416 h; dosed: 3,3',4,4',5-pentachlorobiphenyl; 1000 mg/kg; oral; Female; F344
Rat [26] = test: concentration in plasma after dosing; conditions: 8760 h; dosed: 3,3',4,4',5-pentachlorobiphenyl; 1000 mg/kg; oral; Male; Harlan Sprague Dawley
Rat [27] = test: concentration in liver after dosing; conditions: 2208 h; dosed: 3,3',4,4',5-pentachlorobiphenyl; 1000 mg/kg; oral; Female; Harlan Sprague Dawley
Rat [28] = test: concentration in liver after dosing; conditions: 288 h; dosed: 3,3',4,4',5-pentachlorobiphenyl; 1000 mg/kg; oral; Female; Harlan Sprague Dawley
Rat [29] = test: concentration in liver after dosing; conditions: 5088 h; dosed: 3,3',4,4',5-pentachlorobiphenyl; 1000 mg/kg; oral; Female; F344
Rat [30] = test: concentration in liver after dosing; conditions: 2208 h; dosed: 3,3',4,4',5-pentachlorobiphenyl; 1000 mg/kg; oral; Female; Harlan Sprague Dawley; remark: listed apart in the source
Rat [31] = test: concentration in liver after dosing; conditions: 3984 h; dosed: 3,3',4,4',5-pentachlorobiphenyl; 1000 mg/kg; oral; Male; F344
Rat [32] = test: concentration in liver after dosing; conditions: 768 h; dosed: 3,3',4,4',5-pentachlorobiphenyl; 1000 mg/kg; oral; Female; Harlan Sprague Dawley
Rat [33] = test: concentration in liver after dosing; conditions: 120 h; dosed: 3,3',4,4',5-pentachlorobiphenyl; 1000 mg/kg; oral; Female; Harlan Sprague Dawley
Rat [34] = test: concentration in liver after dosing; conditions: 768 h; dosed: 3,3',4,4',5-pentachlorobiphenyl; 1000 mg/kg; oral; Female; Harlan Sprague Dawley; remark: listed apart in the source

CC(C)[C@]12CC(=O)[C@H](C)[C@H]1C2 [alpha-Thujone]
Conditions | concentration in brain [ng/g] | concentration in plasma [ng/mL]
Rat [1] | – | 280
Rat [2] | – | 21.6
Rat [3] | – | 291
Rat [4] | 911 | –
Rat [5] | – | 92.1
Rat [6] | 1360 | –
Rat [7] | – | 11.8
Rat [8] | – | 172
Rat [9] | – | 179
Rat [10] | – | 174
Rat [11] | – | 290
Rat [12] | – | 743
Rat [13] | – | 843
Rat [14] | – | 160
Rat [15] | – | 241
Rat [16] | 3220 | –
Rat [17] | 123 | –
Rat [18] | – | 171
Rat [19] | 55.3 | –
Rat [20] | 2500 | –
Rat [21] | – | 79.5
Rat [22] | 13.6 | –

Clc1ccc(-c2cc(Cl)c(Cl)c(Cl)c2)cc1Cl [3,3',4,4',5-pentachlorobiphenyl]
Conditions | concentration in liver [pg/g] | concentration in plasma [ng/mL]
Rat [23] | 1140 | –
Rat [25] | 575 | –
Rat [26] | – | 0.0212
Rat [27] | 2170 | –
Rat [28] | 8440 | –
Rat [29] | 847 | –
Rat [30] | 2280 | –
Rat [31] | 2230 | –
Rat [32] | 3660 | –
Rat [33] | 9040 | –
Rat [34] | 5790 | –

concentration in liver [pg/g], Rat [24]
Conditions | Female | Male
1 h, F344 | 767 | –
1.5 h, F344 | 1780 | –
2 h, F344 | 2670 | –
3 h, F344 | 12200 | –
8 h, F344 | 12900 | –
16 h, F344 | 22000 | –
24 h, F344 | 20100 | –
120 h, Harlan Sprague Dawley | 12000 | –
288 h, Harlan Sprague Dawley | 8010 | –
768 h, Harlan Sprague Dawley | 6650 | –
1464 h, Harlan Sprague Dawley | 2190 | –
2208 h, Harlan Sprague Dawley | 2020 | –
2880 h, Harlan Sprague Dawley | 3060 | –
3984 h, F344 | 1530 | 2200
5088 h, F344 | 1590 | –
6000 h, F344 | 849 | –
6000 h, Harlan Sprague Dawley | 1450 | –
6744 h, Harlan Sprague Dawley | 562 | –
7416 h, F344 | 465 | 416
7416 h, Harlan Sprague Dawley | – | 659
8184 h, F344 | 654 | –
8184 h, Harlan Sprague Dawley | – | 382
8760 h, Harlan Sprague Dawley | – | 676
